In the antibiotic and cytotoxicity screens of Wong et al. (2023):
This is one part of the list.

Key:
HSkMC = human skeletal muscle cells; experiment: cytotoxicity call (relative viability < 0.9); details: 10 µM
HepG2 = experiment: cytotoxicity call (relative viability < 0.9); details: 10 µM
S. aureus RN4220 = experiment: growth inhibition call (relative growth <= 0.2); details: 50 µM

Structure (SMILES)	cytotoxicity call (HSkMC)	cytotoxicity call (HepG2)	growth inhibition call (S. aureus RN4220)
O=C(O)CCCCCCC(=O)O	inactive	inactive	inactive
O=C(CN1CCOCC1)NCC[C@@H]1CC[C@H](NC(=O)c2ccccc2F)[C@@H](CO)O1	inactive	inactive	inactive
COc1ccc(NC(=O)N(C)C[C@H]2OCCCC[C@@H](C)Oc3ccc(NC(=O)NC(C)C)cc3C(=O)N([C@H](C)CO)C[C@H]2C)cc1	inactive	inactive	inactive
C[C@@H]1CN([C@H](C)CO)C(=O)c2cccc(NC(=O)C3CCCCC3)c2O[C@@H]1CN(C)Cc1ccc(C(F)(F)F)cc1	inactive	inactive	inactive
COc1ccccc1C(=O)Nc1ccc2c(c1)C(=O)N(C)[C@H]1CC[C@H](CC(=O)NCc3ccc(Cl)c(Cl)c3)O[C@@H]1CO2	inactive	active	inactive
C[C@@H]1CN([C@@H](C)CO)C(=O)Cc2cc(NC(=O)Nc3ccc4c(c3)OCO4)ccc2O[C@H]1CN(C)C(=O)Nc1ccc(C(F)(F)F)cc1	inactive	inactive	inactive
O=C(CCCCCNC(=O)OCCCCO[C@H]1C[C@H]2C(I)=C[C@@H]1C(=O)[C@]21CCCO1)NO	inactive	inactive	inactive
C[C@@H]1CN([C@H](C)CO)C(=O)CCCn2nncc2CO[C@H]1CN(C)S(=O)(=O)c1cccc(C#N)c1	inactive	inactive	inactive
N[C@@H](Cc1ccc(Cl)cc1)C(=O)O	inactive	inactive	inactive
C[C@@H]1CN([C@H](C)CO)C(=O)c2cc(NS(=O)(=O)c3cn(C)cn3)ccc2O[C@@H](C)CCCCO[C@@H]1CN(C)C	inactive	inactive	inactive
C[C@@H]1CN([C@H](C)CO)C(=O)c2cc(NC(=O)c3ccncc3)ccc2O[C@@H]1CN(C)S(=O)(=O)c1ccccc1	inactive	inactive	inactive
COc1cccc(C#Cc2ccc3c(c2)O[C@@H](CN(C)C(C)=O)[C@@H](C)CN([C@@H](C)CO)S3(=O)=O)c1	inactive	active	inactive
C[C@@H]1CN([C@H](C)CO)C(=O)c2cc(C#CC3(O)CCCC3)cnc2O[C@@H]1CN(C)C(=O)C1CCCCC1	inactive	inactive	inactive
O=C(C[C@@H]1C[C@@H]2c3cc(NC(=O)C4CCOCC4)ccc3O[C@@H]2[C@H](CO)O1)NCc1ccc2c(c1)OCO2	inactive	inactive	inactive
Cc1cccc(S(=O)(=O)N2C[C@H](O)COC[C@@H]3O[C@@H](CC(=O)N4CCN(C)CC4)CC[C@H]32)c1	inactive	inactive	inactive
O=C(C[C@H]1C=C[C@H](NC(=O)CN2CCOCC2)[C@H](CO)O1)NC1CCCCC1	inactive	inactive	inactive
CCCN(C)C[C@H]1OCCCC[C@@H](C)Oc2ccc(NC(=O)CCC(F)(F)F)cc2C(=O)N([C@H](C)CO)C[C@H]1C	inactive	inactive	inactive
COCC#Cc1ccc2c(c1)O[C@@H](CN(C)S(C)(=O)=O)[C@@H](C)CN([C@@H](C)CO)S2(=O)=O	inactive	inactive	inactive
C[C@H]1CN([C@@H](C)CO)C(=O)Cc2cc(NC(=O)CCC(F)(F)F)ccc2O[C@H]1CN(C)Cc1ccc(Oc2ccccc2)cc1	inactive	inactive	inactive
COc1ccc(CN(C)C[C@@H]2Oc3ccc(NS(=O)(=O)c4cn(C)cn4)cc3CC(=O)N([C@H](C)CO)C[C@@H]2C)cc1	inactive	inactive	inactive
COc1ccc(NC(=O)N(C)C[C@@H]2OCc3ccccc3-c3c(n(C)c4ccccc34)C(=O)N([C@H](C)CO)C[C@H]2C)cc1	inactive	inactive	inactive
C[C@@H]1CN([C@H](C)CO)C(=O)Cc2cc(NC(=O)c3ccncc3)ccc2O[C@@H]1CN(C)C(=O)Nc1ccc2c(c1)OCO2	inactive	inactive	inactive

Structure (SMILES)	cytotoxicity call (HSkMC)	cytotoxicity call (HepG2)	growth inhibition call (S. aureus RN4220)
C[C@@H]1CN([C@@H](C)CO)C(=O)c2cc(NS(=O)(=O)c3ccc(F)cc3)ccc2O[C@H]1CN(C)CC1CC1	inactive	inactive	inactive
O=C(C[C@@H]1CC[C@@H](NC(=O)CN2CCOCC2)[C@@H](CO)O1)NCCc1ccncc1	inactive	inactive	inactive
O=P(O)(O)C(Cl)(Cl)P(=O)(O)O	inactive	active	inactive
C[C@H]1CN([C@@H](C)CO)C(=O)Cc2cc(NS(C)(=O)=O)ccc2O[C@H]1CN(C)S(=O)(=O)c1cn(C)cn1	inactive	inactive	inactive
O=c1c2cc(O)c(O)cc2oc2cc(O)c(C3OC(CO)C(O)C(O)C3O)c(O)c12 (centres undefined)	inactive	inactive	inactive
CC(C)NC(=O)N(C)C[C@H]1Oc2c(NC(=O)C3CCOCC3)cccc2C(=O)N([C@H](C)CO)C[C@H]1C	inactive	inactive	inactive
C[C@@H]1CN([C@@H](C)CO)C(=O)c2cc(NC(=O)Cc3ccccc3)ccc2O[C@@H]1CN(C)Cc1ccc(C(F)(F)F)cc1	inactive	inactive	inactive
CC(C)C#Cc1ccc2c(c1)O[C@H](CN(C)S(=O)(=O)c1cn(C)cn1)[C@H](C)CN([C@@H](C)CO)S2(=O)=O	inactive	inactive	inactive
CC(C)NC(=O)N(C)C[C@@H]1Oc2ccc(NC(=O)CCC(F)(F)F)cc2C(=O)N([C@H](C)CO)C[C@H]1C	inactive	inactive	inactive
C[C@H](CO)N1C[C@H](C)[C@@H](CN(C)S(C)(=O)=O)Oc2ccc(NS(=O)(=O)c3cn(C)cn3)cc2CC1=O	inactive	inactive	inactive
COc1ccc(S(=O)(=O)Nc2cccc3c2O[C@@H](CN(C)C(=O)Nc2c(C)noc2C)[C@H](C)CN([C@@H](C)CO)C3=O)cc1	inactive	inactive	inactive
C[C@@H]1CN([C@@H](C)CO)C(=O)c2cccc(NC(=O)CCCCCC(=O)Nc3ccccc3N)c2O[C@@H]1CN(C)S(C)(=O)=O	inactive	inactive	inactive
C[C@H](CO)N1C[C@H](C)[C@@H](CN(C)Cc2ccc(Oc3ccccc3)cc2)Oc2ccc(NC(=O)CCC(F)(F)F)cc2CC1=O	inactive	active	inactive
C[C@H]1CN([C@@H](C)CO)C(=O)c2cc(NC(=O)Cc3cn(C)c4ccccc34)ccc2O[C@H]1CN(C)S(=O)(=O)c1cn(C)cn1	inactive	inactive	inactive
C[C@H](CO)N1C[C@H](C)[C@H](CN(C)S(=O)(=O)c2cn(C)cn2)Oc2ncc(-c3ccc(F)cc3)cc2C1=O	inactive	inactive	inactive
COCC(=O)Nc1ccc2c(c1)C(=O)N(C)[C@@H]1CC[C@H](CC(=O)N3CCc4ccccc4C3)O[C@@H]1CO2	inactive	inactive	inactive
Cc1noc(C)c1S(=O)(=O)N(C)C[C@H]1Oc2ccc(NC(=O)Cc3cn(C)c4ccccc34)cc2CC(=O)N([C@H](C)CO)C[C@H]1C	inactive	inactive	inactive
CO[C@H]1CN(C)C(=O)c2ccc(NC(=O)Nc3cccc(F)c3)cc2OC[C@@H](C)N(C(=O)Nc2c(C)noc2C)C[C@H]1C	inactive	inactive	inactive
COc1ccc(NC(=O)Nc2ccc3c(c2)C(=O)N([C@H](C)CO)C[C@@H](C)[C@H](CN(C)C(=O)Nc2ccccc2)OCCCC[C@@H](C)O3)cc1	inactive	inactive	inactive
COc1ccc(S(=O)(=O)Nc2ccc3c(c2)CC(=O)N([C@@H](C)CO)C[C@H](C)[C@@H](CN(C)S(=O)(=O)c2ccccc2)O3)cc1	inactive	inactive	inactive
COC(=O)C[C@H]1CC[C@H](N)[C@@H](CO)O1	inactive	inactive	inactive
